Publication PMC6919601, “Identification of Plasmodium dipeptidyl aminopeptidase allosteric inhibitors by high throughput screening” (PLoS ONE, 2019)
Out of some 110,000 compounds screened, about 230 (0.21%) showed an effect of 50% or more. Some of the results follow.

These molecules were tested against DPAP1 (Plasmodium falciparum, UniProt Q8IIJ9) (assay: primary screen, percent inhibition; read by cleavage of a fluorogenic dipeptide substrate; higher = more effect of the substance).
Parameters: species or system P. falciparum D10 trophozoite lysates; single well
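Also: 30 min substrate incubation versus DMSO and 10 µM JCP410 controls.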

Sequence of DPAP1 (Q8IIJ9 whole entry, looked up): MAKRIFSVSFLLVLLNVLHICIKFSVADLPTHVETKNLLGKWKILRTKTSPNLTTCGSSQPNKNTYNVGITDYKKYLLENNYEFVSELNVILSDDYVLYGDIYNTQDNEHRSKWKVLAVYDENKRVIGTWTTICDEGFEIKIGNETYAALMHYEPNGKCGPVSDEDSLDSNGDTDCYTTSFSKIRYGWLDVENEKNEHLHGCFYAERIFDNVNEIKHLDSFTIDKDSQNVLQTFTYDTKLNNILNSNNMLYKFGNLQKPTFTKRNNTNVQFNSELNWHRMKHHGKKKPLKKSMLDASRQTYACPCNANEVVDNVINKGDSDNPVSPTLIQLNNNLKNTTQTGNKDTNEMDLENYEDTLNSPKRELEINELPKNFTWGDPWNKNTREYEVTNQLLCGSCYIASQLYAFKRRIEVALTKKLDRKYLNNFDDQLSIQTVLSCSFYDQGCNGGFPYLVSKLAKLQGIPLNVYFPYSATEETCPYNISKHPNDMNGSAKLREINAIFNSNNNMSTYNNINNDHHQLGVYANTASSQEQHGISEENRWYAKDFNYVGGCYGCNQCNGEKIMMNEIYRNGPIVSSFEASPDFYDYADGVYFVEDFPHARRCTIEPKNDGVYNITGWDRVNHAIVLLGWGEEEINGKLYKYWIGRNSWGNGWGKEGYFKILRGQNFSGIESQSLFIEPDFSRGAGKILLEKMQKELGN

Compound | % Inhibition @ 10 uM [%]
CC(C)C1C(=O)OC2c3ccccc3C(=O)N21 (stereo not drawn) | 4.01
CCCOC(=O)C(c1ccccc1)N1CCCCCC1 (stereo not drawn) | 1.57
N#CC1=C(N)Oc2nc(O)nc(O)c2C1c1cccc([N+](=O)[O-])c1 (stereo not drawn) | -0.294
CCOC(=O)C1CN1CCC(=O)OC (stereo not drawn) | -5.2
CC(CCN(CCO)Cc1ccccc1)c1ccccc1 (stereo not drawn) | -2.03
Cc1ccccc1Cn1c(SCC(=O)NCc2cccs2)nc2c1c(=O)n(C)c(=O)n2C | 4.57
COc1ccc(S(=O)(=O)NCCSC(C)(C)C)c(Cl)c1Cl | -5.5
COc1ccc(C2=NN(C(=O)CSc3ncnc4ccccc34)C(c3ccc(OC)cc3)C2)cc1 (stereo not drawn) | 3.32
COc1cc(/C=c2\sc3nc(=O)c(C)nn3c2=O)cc(OC)c1OC | -1.52
COc1ccc(N(CC(=O)N2CCCCC2)S(=O)(=O)c2ccccc2)cc1OC | -6.77
O=CNCC(=O)NCCc1ccc(Cl)cc1 | -3.12
N#Cc1sc2nc(-c3cccs3)cc(C(F)(F)F)c2c1N | -2.32
COc1ccc(-c2oc(=O)n(Cc3cccs3)c2-c2ccc(OC)cc2)cc1 | -6.65
Cn1c(=O)[nH]c(=O)c2c1nc(N1CCc3ccccc3C1)n2CCSc1ncccn1 | 0.758
COc1cc(-c2nc3ccccn3c2N)ccc1O | -4.3
COc1ccc(NC(=O)CNS(=O)(=O)c2ccc(Cl)cc2)cc1OC | -3.77
COc1ccccc1/C=C/C1=NC(=C\c2cccs2)/C(=O)O1 | 11.9
COc1ccccc1CNC1CCC(c2ccccc2)CC1 (stereo not drawn) | 0.265
O=C(OCC(O)CNC12CC3CC(CC(C3)C1)C2)C12CC3CC(CC(C3)C1)C2 (stereo not drawn) | -12
CC(C)Cc1ccc(-c2csc(Nc3ccc(Oc4ccccc4)cc3)n2)cc1 | -2.2
O=C1NC(=O)C(=Cc2ccc(SCc3ccc(Cl)cc3)o2)C(=O)N1 | -1.7
COc1ccc(S(=O)(=O)N2CCC(c3nc(O)c4nnn(Cc5ccccc5F)c4n3)CC2)cc1 | 1.25
Cc1ccnc(N2CCN(C(=O)CSc3nc4ccccc4nc3N3CCC(C)CC3)CC2)c1 | 0.032
CCC(C(Nc1ccccc1)c1ccccc1)[N+](=O)[O-] (stereo not drawn) | -4.01
CCOc1cccc(NC(=O)c2sc3nc(-c4ccc(OC)c(OC)c4)ccc3c2N)c1 | 0.161
Cc1cccc(NC(=O)c2cccc(Br)c2)n1 | 5.14

Compound | % Inhibition @ 10 uM [%]
COc1ccccc1C1=Nc2c(c(=O)[nH]c(=O)n2Cc2ccccc2)C(C(F)(F)F)(C(F)(F)F)N1 | 4.94
Cc1nn(C)c(C)c1CN(C)S(=O)(=O)c1ccc(F)cc1 | 0.812
CC1=C(C(=O)Nc2ccccc2C)C(c2ccc(Cl)c(Cl)c2)n2nc(CCCO)nc2N1 (stereo not drawn) | 0.528
CCOC(=O)c1sc(NC(=O)c2ccc(Cc3ccccc3)cc2)nc1C | 6.51
O=C(Nc1ccccc1F)c1ccccc1C(=O)Nc1ccccc1F | 9.41
CCC1CCCCN1S(=O)(=O)c1ccc(C(=O)Nc2nnc(-c3cccc(OC)c3)o2)cc1 (stereo not drawn) | 7.29
CC(C)CCNC(=O)C1CCN(c2nn3cc(-c4ccc(F)cc4)nc3s2)CC1 | -3.81
CCCS(=O)(=O)n1nc(-c2ccccc2)cc1N | 1.15
C/C(=C\c1ccccc1)CN1CCCC(O)C1 (stereo not drawn) | 0.472
O=C(CCC1CCCCC1)NC1(C(F)(F)F)NC(=O)N(Cc2ccccc2)C1=O (stereo not drawn) | -3.33
C/C(=C\c1ccccc1)CN1CCC(C(N)=O)CC1 | 0.217
O=C(Nc1ccc(Cl)cc1Cl)c1cnccn1 | 1.26
Cc1ccc(C)n1-c1nnc(N2CCCC(C(=O)N3CCOCC3)C2)s1 (stereo not drawn) | 2.65
CCO/C=N/c1oc(-c2ccccc2)c(-c2ccccc2)c1C#N | 3.36
Cc1ccc(S(=O)(=O)Nc2ccc(Cl)cc2)cc1 | 2.8
Cc1nc2sc(C#N)c(N)c2c(C)c1C | -0.239
Cn1ccc(C(=O)NC2C3CC4CC(C3)CC2C4)n1 (stereo not drawn) | -2.17
CC1CCC(NCCN2CCOCC2)CC1 (stereo not drawn) | -7.11
Brc1ccc(OCCCN2CCCCC2)cc1 | 2.26
COc1cc(C)ccc1OCCCCNC1CCCC1 | -3.78
COc1ccc(OC)c(C2c3[nH]c4ccccc4c3CC3C(=O)N(C)C(=S)N32)c1 (stereo not drawn) | 12.1
CCOc1cc(C2CC(=O)NC(SCC)=C2C#N)ccc1O (stereo not drawn) | -7.3
Cc1cccc(C(=O)NCc2ccccc2)c1 | 1.91
CC(C)C[C@H](NC(=O)c1cc(-c2ccccc2)no1)C(=O)NCC#N | -5.2
COc1ccc(CNC(=O)c2ccc(C/N=c3\c(O)c(O)\c3=N/C3CCCCC3)cc2)cc1 | -2.25
O=C(Nc1ccc2c(c1)OCCO2)c1sc2ccccc2c1Cl | -6.18

Compound | % Inhibition @ 10 uM [%]
O=C1OC(c2cccc(Br)c2)=N/C1=C\c1cc(Br)cs1 | -0.617
Cc1cc(F)c(F)cc1C(=O)N1C(C)CCCC1C (stereo not drawn) | -4.7
COc1ccc(OC)c(/C=C2\SC(=O)N(CC(=O)O)C2=O)c1 | 2.84
CCOC(=O)c1c(S(=O)(=O)N2CCN(c3ncccn3)CC2)c(C)n(C)c1C | 0.399
CC1CCCCN1C(=O)c1cc2ccc3cccnc3c2[nH]1 (stereo not drawn) | -2.35
C#CCn1cnc2c(cnn2-c2ccc(C)c(C)c2)c1=O | -0.0309
Cc1c(C)n(Cc2ccccc2)c2ccc(C(=O)NC(C)C)cc12 | -7.44
Cn1c(=O)[nH]c(=O)c2c1nc(Br)n2Cc1ccccc1Cl | -9.4
CCC(C)c1ccccc1OCC(=O)Nc1ccc(S(=O)(=O)N2CCC(C)CC2)cc1 (stereo not drawn) | -3.26
N#CC1(c2ccccc2)CCN(S(=O)(=O)c2cccc3cccnc23)CC1 | -3.39
Cc1cccc(-c2nc3s/c(=C\c4ccc(C)o4)c(=O)n3n2)c1 | -8.79
Cc1ccccc1Cn1c(N2CCC(C)CC2)nc2c1c(=O)n(C)c(=O)n2C | -2.13
COc1ccc(C2C(C(=O)c3ccccc3)=C(O)C(=O)N2CCN(C)C)c(OC)c1 (stereo not drawn) | 2.39
Cc1cccc(C(=O)OCCN2CCN(C3=NS(=O)(=O)c4ccccc43)CC2)c1 | -11.8
COc1ccc(S(=O)(=O)Nc2ccccc2C(=O)NCC(C)C)cc1OC | 2.95
Cc1ccc(-c2csc(/C(C#N)=C\c3ccc(Br)cc3)n2)cc1 | 0.912
O=C(NC1CCCc2ccccc21)c1csc2c1CCCC2 (stereo not drawn) | -0.622
CC(C)(C)c1ccc(C2C3=C(CCCC3=O)N=C3C2=C(O)c2ccccc23)cc1 (stereo not drawn) | -4.51
CCCCOc1ccc(N2C(=O)CC(NCc3ccc4c(c3)OCO4)C2=O)cc1 (stereo not drawn) | -0.622
COc1ccc(C(=O)COC(=O)c2ccccc2)cc1 | -0.962
O=S(=O)(c1ccccc1)c1ccc(N2CCCCC2)cc1 | 4.82
Cc1ccc2nc3nc(C)cc(C)c3c(O)c2c1 | -3.95
COC(=O)/C=C1/OC(c2ccc(Cl)cc2)=CC1=O | -0.687
COc1ccc(CNC(=O)c2c(O)nc3c(c2O)CCCC3)cc1OC | 5.66
O=C1C(c2ccccc2)=NOC12CCCC2 | 0.00784
O=C(NC1CSC(C(=O)O)C1=O)c1ccccc1 (stereo not drawn) | -3.66

Compound | % Inhibition @ 10 uM [%]
COc1ccc(C(=O)O)cc1COc1ccccc1Cl | 0.35
O=C(Cc1ccccc1F)Nc1ccc(C(=O)c2ccccc2)cc1 | -4.66
CCCCN1C(=O)C(NC(=O)CC(C)C)(C(F)(F)F)C2=C1CC(C)(C)CC2=O (stereo not drawn) | 1.15
Cc1ccc(NCc2cccnc2)cc1 | 1.29
CCCC(C)N1CCN(S(=O)(=O)c2cc(-c3onc(C)c3C)ccc2OC)CC1 (stereo not drawn) | -1.23
CC(C)(CO)NC(=O)CSc1ccc(C(F)(F)F)cc1Cl | -2.24
CCN(CC)C(=O)COc1ccc2ccccc2c1Br | 2.44
COC(=O)N1CC(=O)N(OC)C1c1ccc(Cl)cc1Cl (stereo not drawn) | 2.92
CCOc1ccccc1N1CCN(C(=O)c2c(-c3ccccc3Cl)noc2C)CC1 | 0.389
COc1ccc(-c2cc(C(F)(F)F)nc(S(=O)(=O)CCCC(=O)O)n2)cc1OC | 11.6
NC(=O)c1c(NC(=O)C(c2ccccc2)c2ccccc2)sc2c1CCC2 | -7.93
O=C(COc1ccccc1)Nc1cccc2c(NC(=O)COc3ccccc3)cccc12 | 1.29
Cc1ccccc1S(=O)(=O)Cc1ccc(C(=O)NCCCSC2CCCCC2)o1 | -1.28
Cc1c(C(=O)N2CCN(c3ccc(F)cc3)CC2)cccc1[N+](=O)[O-] | -1.64
CN1CCN(C(=O)c2ccc3ccccc3c2)CC1 | -0.28
CC(C)(C)/N=c1/c(-c2ccc(Cl)cc2)c(O)c1=O | -2.56
Cn1ncc2c(NC(c3ccccc3)c3ccccc3)ncnc21 | -1.27
CC(C)CC(C(=O)NCC#N)c1cccc(-c2cncc3ccccc23)c1 (stereo not drawn) | 0.173
Cn1c(=O)c2c(nc(OCC3COC(C)(C)O3)n2Cc2ccccc2Cl)n(C)c1=O (stereo not drawn) | 1.72
CCCCc1ccc(C(=O)Nc2cc3ccccc3oc2=O)cc1 | 4.15
CCOc1ccc(C(=O)Nc2nn3c(CC)nnc3s2)cc1 | 2.25
O=C(Nc1nc[nH]n1)c1ccccc1O | -7.25
COc1ccc(C(=O)Nc2cccc(C(=O)Nc3cccc(Cl)c3)c2)cc1 | -4.43
CC(C)(C)c1ccc(Oc2nc3ccccn3c(=O)c2/C=C(\C#N)S(=O)(=O)c2ccccc2)cc1 | 0.189
